In PubChem BioAssay AID504332 (National Center for Advancing Translational Sciences (NCATS), 2011):
The campaign covered roughly 350,000 compounds. About 31,000 (8.9%) were called active. This list was built around the results that the source calls inconclusive (neither active nor inactive); the mix of calls is not that of the screen. Calls follow the shape of the dose curve; as a rule, active = well fitted inhibition curve with a large enough effect; inconclusive = small, poorly fitted or top-dose-only effect; inactive = no such curve, though single readings can be large or run the other way. Potencies of inconclusive entries are doubtful fits and often do not repeat.

The compounds below were run against Histone-lysine N-methyltransferase EHMT2 (Homo sapiens) (UniProt Q96KQ7) (assay: qHTS Assay for Inhibitors of Histone Lysine Methyltransferase G9a). Details: G9a H3K9 monomethylation, AlphaScreen, 2 h; activity, negative = inhibition: at 59 µM (top of the series) unless noted.
Chain of UniProt Q96KQ7 (Q96KQ7 whole entry, looked up): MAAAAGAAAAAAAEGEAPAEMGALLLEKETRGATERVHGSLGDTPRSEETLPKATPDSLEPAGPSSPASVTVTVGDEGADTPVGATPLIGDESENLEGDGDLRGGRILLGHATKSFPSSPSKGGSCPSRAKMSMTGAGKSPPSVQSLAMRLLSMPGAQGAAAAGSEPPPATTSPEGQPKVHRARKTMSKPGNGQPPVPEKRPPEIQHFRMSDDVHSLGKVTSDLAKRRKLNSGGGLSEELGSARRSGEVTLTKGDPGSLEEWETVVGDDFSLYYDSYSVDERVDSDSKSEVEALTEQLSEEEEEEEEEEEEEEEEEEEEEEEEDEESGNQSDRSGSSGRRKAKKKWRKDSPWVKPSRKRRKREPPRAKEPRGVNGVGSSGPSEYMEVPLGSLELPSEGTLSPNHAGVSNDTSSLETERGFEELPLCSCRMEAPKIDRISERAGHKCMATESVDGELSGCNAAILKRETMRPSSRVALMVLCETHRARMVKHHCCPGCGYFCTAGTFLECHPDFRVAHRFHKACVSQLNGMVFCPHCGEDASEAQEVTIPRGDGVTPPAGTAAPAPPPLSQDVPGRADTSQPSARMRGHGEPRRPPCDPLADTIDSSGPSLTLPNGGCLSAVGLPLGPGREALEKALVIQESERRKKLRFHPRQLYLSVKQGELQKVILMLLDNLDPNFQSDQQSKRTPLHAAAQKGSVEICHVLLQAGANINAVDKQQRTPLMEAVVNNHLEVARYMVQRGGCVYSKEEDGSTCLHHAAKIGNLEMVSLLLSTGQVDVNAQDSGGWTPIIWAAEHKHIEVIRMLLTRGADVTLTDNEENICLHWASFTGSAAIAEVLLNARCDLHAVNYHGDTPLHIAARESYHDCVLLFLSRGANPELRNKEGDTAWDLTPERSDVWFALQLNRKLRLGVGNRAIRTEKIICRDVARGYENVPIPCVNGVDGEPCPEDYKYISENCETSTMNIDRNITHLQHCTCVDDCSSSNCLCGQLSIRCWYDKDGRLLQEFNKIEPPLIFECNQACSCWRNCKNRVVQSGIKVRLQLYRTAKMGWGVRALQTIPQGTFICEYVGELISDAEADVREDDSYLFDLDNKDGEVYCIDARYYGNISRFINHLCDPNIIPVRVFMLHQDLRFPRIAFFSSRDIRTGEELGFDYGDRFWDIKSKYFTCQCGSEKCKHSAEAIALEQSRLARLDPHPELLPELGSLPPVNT
In short: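 G9a (20 nM) preincubated 15 min RT with compounds, then 500 nM biotinylated H3K9 peptide and 20 uM SAM added; 2 h RT reaction. Monomethyl-H3K9 product detected by AlphaScreen with anti-H3K9me1 antibody, streptavidin donor and anti-rabbit IgG acceptor beads.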
% is scaled to controls: 0 for no effect and ±100 for the full control effect; potency is read from the fitted curve at half-maximal effect; tags tell the direction and shape of the fitted curve.
Also: nearly all actives have a fitted effect of over 75% in size.

Structure (SMILES) | Potency | activity, negative = inhibition
Cc1cc(C)c(S(=O)(=O)N(CC(=O)O)C2CCCCC2)c(C)c1 | inconclusive: 5.01 µM [inhibitor, partial curve, poor fit] | 
CC1CCC2CCCCC2N1C(=O)c1cc([N+](=O)[O-])cc([N+](=O)[O-])c1 (stereo not drawn) | active: 44.7 µM | 
COc1cccc(Nc2nc3cc(Cl)c(Cl)cc3nc2-n2nc(C)cc2C)c1 |  | inactive: -18.1%
O=C(NC(=S)NNC(=O)c1cccs1)c1ccccc1 | active: 8.91 µM | 
CC1(C)CC(=O)C2=C(C1)c1c(ccc3ccccc13)NC2c1ccc(Br)o1 (stereo not drawn) |  | inactive: -10.4% [at 12.7 µM]
CC[n+]1c(/C=C/c2ccc(OC(C)=O)c(OC)c2)ccc2ccccc21 | active: 25.1 µM | 
O=S(=O)(NCCC1=CCCCC1)c1cccc2nsnc12 | inconclusive: 56.2 µM [inhibitor, partial curve, poor fit] | 
COc1ccccc1-n1c(-c2ccc(Cl)cc2)c[nH]c1=S | inconclusive: 0.158 µM [inhibitor, full curve, poor fit] | 
COc1ccc(CN(CCN2CCOCC2)C(=O)c2c(F)cccc2F)cc1OC | inconclusive: 70.8 µM [inhibitor, partial curve] | 
CCN1C(=O)C2C(c3cccc(F)c3)NC(CC)(C(=O)OC)C2C1=O (stereo not drawn) | inconclusive: 89.1 µM [inhibitor, partial curve, poor fit] | 
CCCCNS(=O)(=O)c1ccc(S(=O)(=O)N2CCC3(CC2)OCCO3)cc1 | inconclusive: 0.158 µM [inhibitor, partial curve, poor fit] | 
CCCCCCCCCn1c2c(c(=N)c3c1CCC3)CCC2 | inconclusive: 28.2 µM [inhibitor, single point] | 
COCCn1c(C)cc(/C=C2/NC(=O)N(Cc3ccc(C)cc3)C2=O)c1C | active: 15.8 µM | 
Cc1ccc(S(=O)(=O)N(C)C)cc1NC(=O)COC(=O)/C=C/c1cnc2ccccc2n1 | inconclusive: 79.4 µM [inhibitor, single point] | 
Cc1ccc2c(CC(=O)NCc3ccco3)coc2c1C |  | inconclusive: -73.3% [inhibitor]
CCOC(=O)c1cc(C#N)c(SCC(=O)c2cc(C#N)c(SC)nc2C)[nH]c1=O | active: 50.1 µM | 
CSCCC(NS(=O)(=O)c1cc(C(=O)O)ccc1Cl)C(=O)O (stereo not drawn) | inconclusive: 39.8 µM [inhibitor, full curve] | 
CCN(CC)C(=O)c1csc(Nc2cccc3ccccc23)n1 | active: 39.8 µM | 
O=C(Nc1ccccc1)C1CCN(S(=O)(=O)c2ccc3[nH]c4c(c3c2)CCCCC4)CC1 | inconclusive: 11.2 µM [inhibitor, partial curve, poor fit] | 
Cc1ccc(-c2cn(-c3ccccc3F)c(=S)[nH]2)cc1 | active: 28.2 µM | 
CCc1c(C)sc2c1CCN(C(=O)Nc1ccc(F)c(Cl)c1)C2c1ccc(F)cc1 (stereo not drawn) |  | inactive: 7.18%
CCOC(=O)c1c(C)n(O)c2ccc(Cl)cc2c1=O | inconclusive: 56.2 µM [inhibitor, partial curve, poor fit] | 

Structure (SMILES) | Potency | activity, negative = inhibition
CC(C)CC(=O)N1CCN(CC2CC=CCC2)CC1 (stereo not drawn) | active: 6.31 µM | 
CC1CCN(c2oc(/C=C/c3ccc(F)cc3)nc2C#N)CC1 | inconclusive: 11.2 µM [inhibitor, partial curve, poor fit] | 
O=C(NC(=S)Nc1ccccc1N1CCOCC1)c1ccccc1F | inconclusive: 89.1 µM [inhibitor, single point] | 
CCCOC(=O)c1ccc(Cn2nnc3sc4c(c3c2=O)CCC(C)C4)cc1 (stereo not drawn) | inconclusive: 31.6 µM [inhibitor, single point] | 
COCCCNc1nc2c(c(=O)n(Cc3cccc(Br)c3)c(=O)n2C)n1C | inconclusive: 1.41 µM [inhibitor, full curve] | 
COc1ccc(-c2cc3cc(OC)c(OC)cc3c(C)n2)cc1C |  | inactive: -10.3% [at 12.7 µM]
Cc1ccc(-c2nnc3sc(CCc4ccccc4)nn23)cc1 | inconclusive: 2.24 µM [inhibitor, partial curve, poor fit] | 
O=C(Cn1nc(C(=O)O)c2ccccc2c1=O)NCc1ccco1 |  | inactive: -44.6% [at 102 µM]
S=C(NCc1ccccc1)Nc1ccncc1 | inconclusive: 63.1 µM [inhibitor, single point] | 
COc1cc(/C=C/c2[nH]c(=O)[nH]c(=O)c2[N+](=O)[O-])cc([N+](=O)[O-])c1O | active: 44.7 µM | 
COc1ccccc1CNC(=O)c1cccc(-c2ccccc2OC)n1 | inconclusive: 31.6 µM [inhibitor, single point] | 
COc1ccc2nc(C)cc(SCC(=O)N/N=C/c3ccccc3)c2c1 | inconclusive: 1.26 µM [inhibitor, full curve] | 
Cc1sc(NC(=O)CN2CCOCC2)nc1-c1ccc2c(c1)CCN2S(=O)(=O)c1ccccc1 | inconclusive: 3.16 µM [inhibitor, single point] | 
COc1ccc(C)cc1NC(=O)COC(=O)c1ccccc1SCC(=O)N1CCCC1 | inconclusive: 89.1 µM [inhibitor, single point] | 
Cc1ccc(OCC(=O)Nc2ccccc2C(=O)N2CCCCC2)cc1 | inconclusive: 50.1 µM [inhibitor, partial curve, poor fit] | 
Cc1c(Br)c([N+](=O)[O-])nn1CC(=O)Nc1cccc2nonc12 | inconclusive: 79.4 µM [inhibitor, partial curve, poor fit] | 
COc1cccc(C(=O)C[n+]2cccc3cc(OC)ccc32)c1 | inconclusive: 7.08 µM [inhibitor, single point] | 
COc1ccccc1N1CCN(S(=O)(=O)c2ccc3nc(-c4ccccc4)[nH]c3c2)CC1 | inconclusive: 79.4 µM [inhibitor, single point] | 
Cc1c(-c2ccccc2)nc2ccccc2c1C(=O)NCc1cccs1 | inconclusive: 31.6 µM [inhibitor, single point] | 
CCOC(=O)c1sc(NC(=O)Nc2ccccc2)cc1C | inconclusive: 14.1 µM [inhibitor, partial curve, poor fit] | 
C[S+](C)CC[C@H](N)C(=O)O |  | inactive: -10.7% [at 12.7 µM]
